Read counts are not given, so values of variants with three or more changes are uncertain.
B1: CPEB3 Ribozyme (parent)
chain: UAACAGGGGGCCACAGCAGAAGCGUUCACGUCGCAGCCCCUGUCAGAUUCUGGUGAAUCUGCGAAUUCUGCUGUAUAUCUC

Variants of: B1
Assay: self-cleavage, relative activity (ratio to wild type); higher = more cleavage; in vitro, sequencing
How it was run: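 Relative activity compares each variant's cleaved/total read fraction with that of the unmutated ribozyme. To get these fractions, barcoded CPEB3 ribozyme libraries from rounds of error-prone PCR were transcribed with T7 RNA polymerase for 5 hours at 37°C and then given 15 min of DNase I treatment before EDTA was added. The RNAs were reverse transcribed with template switching and sequenced on Illumina, and DNA sequencing linked barcodes to variants. A minimum of 5 reads applied, and three batches were averaged.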

Variant | self-cleavage
U26C G33A U72G U78C | 0.12
U26C G33C A75G | 0.08
U26C G33C U76A A77U | 0.19
U26C G33U U41C G53C U69A U72C | 0.06
U26C G33U U49A U66C G73A | 0.16
U26C G33U U51G U72C | 0.12
U26C G36A A57G U67C | 0.11
U26C G36A U51C | 0.15
U26C G36C G55A | 0.08
U26C G42A U51C | 0.15
U26C G42A U54G | 0.08
U26C G42A U72A A77G U78C | 0.33
U26C G42C A77C | 0.11
U26C G46A A57G | 0.07
U26C G46A U58A A64G A77U | 0.08
U26C G46A U69C U72A | 0.17
U26C G52A A65G U66A U76A U78C | 0.05
U26C G52A A65G U78C | 0.13
U26C G52C A64G | 0.09
U26C G53A A57G | 0.57
U26C G53A U58G U69A U72A | 0.08

Variant | self-cleavage
U26C G53U A65G | 0.14
U26C G53U U66A | 0.23
U26C G61A U69C | 0.16
U26C G70C U76A | 0.12
U26C G70U U78A | 0.16
U26C U31A A35G A57G G61A | 0.21
U26C U31A A45U | 0.16
U26C U31A A57G U67C | 0.09
U26C U31A A64U | 0.12
U26C U31A A77U | 0.13
U26C U31A C32G | 0.29
U26C U31A C68A | 0.14
U26C U31A U41C U51A C81U | 0.2
U26C U31A U43C U48C | 0.1
U26C U31A U72C | 0.22
U26C U31A U78C | 0.14
U26C U31A U78G | 0.2
U26C U31C A35G A45U A57G A65G A75G | 0.05
U26C U31C A45G U60A U67C | 0.16
U26C U31C A57G U69A | 0.13
U26C U31C A57U U69A | 0.16

Variant | self-cleavage
U26C U31C A75G | 0.31
U26C U31C C37U G46U U67A A75G | 0.1
U26C U31C G36A C50U U54C | 0.06
U26C U31C G52A | 0.19
U26C U31C U41A A47G G53A U72A C81U | 0.06
U26C U31C U41C G46U U66C | 0.16
U26C U31C U41C U72A | 0.29
U26C U31C U43G | 0.31
U26C U31C U48C | 0.29
U26C U31C U48C U72A | 0.12
U26C U41A A45G | 0.32
U26C U41A A56C U76C | 0.19
U26C U41A A56G | 0.47
U26C U41A A75U | 0.06
U26C U41A U54A C59A A65G | 0.08
U26C U41A U54C A75U U80A | 0.26
U26C U41A U54C U67A | 0.16
U26C U41A U60C U72C | 0.21
U26C U41A U69C U76C U80C | 0.07
U26C U41A U72C | 0.15
U26C U41A U74A | 0.37

Variant | self-cleavage
U26C U41C A45G | 0.42
U26C U41C A45U | 0.26
U26C U41C A47G G61A | 0.45
U26C U41C G42U U49C U74C | 0.06
U26C U41C G53U U67C | 0.38
U26C U41C G70C | 0.11
U26C U41C U48C A56U U60C A65G | 0.04
U26C U41C U48C U76A A77U | 0.3
U26C U41C U49A U78C | 0.37
U26C U41C U51A | 0.45
U26C U41C U51C | 0.38
U26C U41C U60C U80C | 0.27
U26C U41C U66C | 0.39
U26C U41C U69A | 0.53
U26C U41C U74C | 0.63
U26C U41G A47G G55A | 0.08
U26C U41G U51C | 0.28
U26C U43A A45G | 0.24
U26C U43A U48C U60C | 0.15
U26C U43A U48G C62G U78C | 0.06
U26C U43A U78C | 0.1

From the RNAGym collection of RNA variant scans (doi:10.1093/nar/gkz1192)
